This is one part of the list. At the low end of the ranking, values are background and their order means little. The protein was read in a cell extract, so binding may be indirect.
The sequences below were run against T1, HNF4alpha8 (COS-7 nuclear extract) (UniProt P41235-5) (assay: protein-binding microarray). Details: COS-7 nuclear extract on double-stranded Agilent 4x180k PBM; binding buffer, salt, pH and temperature not given; high values mean tight binding; double strand, one strand shown; sequences stand for … in …GCCTAGGGAGATTAGAGTATCGGTCGA.
T1 sequence: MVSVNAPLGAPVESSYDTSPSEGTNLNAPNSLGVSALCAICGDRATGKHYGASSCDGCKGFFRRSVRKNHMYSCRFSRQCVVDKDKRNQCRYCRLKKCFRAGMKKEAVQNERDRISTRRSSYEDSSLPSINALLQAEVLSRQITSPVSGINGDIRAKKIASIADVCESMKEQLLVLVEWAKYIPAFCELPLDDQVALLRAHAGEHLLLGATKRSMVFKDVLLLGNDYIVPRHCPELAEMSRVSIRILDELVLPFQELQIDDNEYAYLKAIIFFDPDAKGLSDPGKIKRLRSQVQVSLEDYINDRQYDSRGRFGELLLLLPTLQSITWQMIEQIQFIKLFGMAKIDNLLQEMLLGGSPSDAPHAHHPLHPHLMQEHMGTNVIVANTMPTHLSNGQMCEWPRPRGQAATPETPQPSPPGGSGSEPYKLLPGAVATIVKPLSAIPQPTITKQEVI

Sequence | binding signal (log2 normalized intensity)
GTGAGAAGAGAAACACATGCAATCACACTA | -1.21
CCAAAACTCTCTCTCTGTGTCACATACACC | -0.848
GGTCACACTGCACCTGCCTGAACAAGTCCA | -1.26
TGCTGGGCTGCATTCCCAGATGGTTAGGTA | -0.562
AACCTGACTGCGCTCCCAGAAGCCTCCGGT | -1.3
GTCACCATAAAACATTCTATTCTATCTGTA | 0.384
TGAGATAAAAAGAAGCTTGGTATGTCTGAT | 0.371
TAATTAACTTGTGTTCAGAGCTTGCTGCAT | -0.87
CTTATCTCAAGAATTGTCTAACCGCAGCAA | -1.34
GTCAAACTTTGGACCCACTGCAGGATTGGA | 4.17
CTATTCTCTAAACTCTGGGCTCTATTTGGA | 0.51
CTTCACTTGTAGGAGACCTTGAGGATAAGT | 0.986
GTACTCCTCACTGTTGTGACATACTGCCTT | 0.84
CTCTGCCTGCGTCTTATATAAGCTATTACT | -1.19
CTCCGCCCCATTGTCTTAGGCCTCGGGAGT | 1.3
GTTATCCTTGTTCTATGTTCACATCTCCTC | 1.3
ATGATAACCCAGTGCAATGCCTAAACCAGG | -1.34
TATCAGCCTGTGACAAAGTCCATCTGGGCA | 4.03
TGATAGCCTTTTACCTTGGCAGCCACTGAG | -1.14
GCCGCCGCCGTGGGAGAGGCCGCCCCCTGC | 4.39
CCCAGAAACACTGAACCTTGTCCCACTCTT | 2.32
GTCCAGGAGTGCAAAGCTGCTATGAGCTAT | -1.26
CTTCCAGCCATTTTGTGAGCTCTGATGGCG | -1.2
AAAACAGGTAGAGAGCTGTCTGCTGAGGAT | -1.3

Sequence | binding signal (log2 normalized intensity)
GCCAGAGTTCCTGTGCAAGCCCCTGACCAA | 1.67
TTCAGAAGGTAGGTAAGGGGGAATGCCAAC | -1.31
GCATAGATGTTTAGCTATCAGTGTTGACCT | 4.65
ACATTCCTAAAAGCTTTCTTGGGCAAGAAA | -1.36
CGCCCCGCCTTCGCGCCCGTTTTCGTTTGC | 1.97
GCCATACGTCTAGAGCTGTCCAGCAGACAA | -1.33
GTGACCTTGAGCACTAAAGAGGCTACCAGA | -1.22
AGACTGGTTTGCACAGGTTACACAGTATGT | -0.754
AGGCCAGCTGTCTGGTTTGACCTTAAGTCA | 5.5
TATGTGGTGGAATGGAAAGAATATGAACTT | 1.88
AAGTAACAAGAGGCAAAGGCCACAGCTCAG | -1.32
GAAAGGAAATCATTCCAGAAAGACAGCTGC | -1.32
TTTACAGCACTTCATCCTTATGTAACTGTA | 0.579
CCCCTGGGCTCAAGCGATCCTCCCACTTCA | -1.32
GAGAAAGCAGTGACCATCCCAAAGCTTTTT | -1.37
AAATGCTGATAATGATATGGACAATGAAAT | 0.122
CCCCCACACAGACAAAGACAGAGAGGCTTC | 2.13
GGGCAGCACAGCCTCCCTGTGGGGGAGGTG | -1.22
CTGCCCTTCCCTCCACTATTGTCCTATGAC | 2.45
ACATTTTTATCCTTTTTTGAAGGTTAAAGT | 3
TCAACTAAGTGTTATCTAAATTAGATATGG | 0.865
CGCCCAGCCAGAAAAACAGCATTTTTATCA | -1.2
GGAATTTGCCCTGTGGTCTAGCTTGTTCTC | 2.97
TGTGTAGGAGTACACTCAGCACACCCCACG | 2.21

Sequence | binding signal (log2 normalized intensity)
TCCAGGAATGTGCTAAAAAACAAACAAAAA | -1.33
AATGAACACCTGTTCTAATCAGTAGCTCAC | -1.3
CTCTGCACAGCACAAGATAAGATAGGAATT | -0.983
CTTGAGTAGCTGGGACTACAGGCAGGCACC | -1.51
CCAGGGAAGCTGGTAGCATGGCTCAGTCCA | -1.28
TATTTCCACTGAGGTCAAGATAAGATACGA | 1.14
GCTGTTTTTCCAGTTTTTGTTTGCACCTCA | 1.7
GGGCAATTGGTTTCCGCTAAGTCCAAAGGT | 4.14
TGACCTGTGATAAGAAATGAATGTCACTTT | 1.48
TGGTGTGTGTGTGTGTGTTTTGTGCCTGTT | 2.71
GGAGAAGTTTTATGGCAGGGTCGGAATGTC | 2
ACTTTGAACCAAGATATGCTAACATCCCTT | -1.33
CCTTATTCTTAACAAGCTGAGCACCAGAAA | -1.36
CCTGCTGAGCCCAATCTAGCAAAAATCCTG | -1.3
CCACTAGAGAGACCGTCCCTGGGTACAACT | 1.33
AGGGGGGAGAAATTAAAGCACATACTTCTT | -1.33
TGCTGAGGAGGGCCTGGGGGACAGCAGGGG | -1.31
TTTTGCCCCTGCAGAGTTTTTTACTGCTCC | 1.2
GGAGCTCATACCTCTTACCAGATAGATGCT | -1.23
GCCTGGGGTTTGGCTCCAAGGCTGAAGGTC | 3.73
CAAAGGTGAATGACCCCTCCCCTCCCCCTT | 6.02
ATAATCTTTGAAATCTGCAAATAGACATGA | 0.693
AGCTGCAAGTGCCAACAAACTCAATCCTGG | -1.32
GCGCCCTTTGTTCTCCGGGTTCTGCGCAGG | 0.568
